Screen size: about 390,000 compounds; about 17,000 (4.4%) were called active. This list was built around the results that the source calls inconclusive (neither active nor inactive); the mix of calls is not that of the screen. The call rests on the fitted dose curve; in most records, active means well fitted inhibition curve with a large enough effect; inconclusive means small, poorly fitted or top-dose-only effect; inactive means no such curve, though single readings can be large or run the other way. A potency beside an inconclusive call is a rough fit, not a confirmed value.
molecular target: Lysine-specific demethylase 4A (Homo sapiens) (UniProt O75164); test: qHTS Assay for Inhibitors of JMJD2A-Tudor Domain; conditions: AlphaScreen JMJD2A-Tudor / H3K4me3 peptide binding; activity change, negative = inhibition: at 114 µM (top of the series); further: nearly all actives have a fitted effect of over 50% in size
On the % scale 0 is the no-effect control and ±100 the full control effect; potency means the concentration at half of the fitted maximal effect; tags describe the fitted curve by direction and shape.

Sequence of UniProt O75164 (O75164 whole entry, looked up, the tested form may be a part): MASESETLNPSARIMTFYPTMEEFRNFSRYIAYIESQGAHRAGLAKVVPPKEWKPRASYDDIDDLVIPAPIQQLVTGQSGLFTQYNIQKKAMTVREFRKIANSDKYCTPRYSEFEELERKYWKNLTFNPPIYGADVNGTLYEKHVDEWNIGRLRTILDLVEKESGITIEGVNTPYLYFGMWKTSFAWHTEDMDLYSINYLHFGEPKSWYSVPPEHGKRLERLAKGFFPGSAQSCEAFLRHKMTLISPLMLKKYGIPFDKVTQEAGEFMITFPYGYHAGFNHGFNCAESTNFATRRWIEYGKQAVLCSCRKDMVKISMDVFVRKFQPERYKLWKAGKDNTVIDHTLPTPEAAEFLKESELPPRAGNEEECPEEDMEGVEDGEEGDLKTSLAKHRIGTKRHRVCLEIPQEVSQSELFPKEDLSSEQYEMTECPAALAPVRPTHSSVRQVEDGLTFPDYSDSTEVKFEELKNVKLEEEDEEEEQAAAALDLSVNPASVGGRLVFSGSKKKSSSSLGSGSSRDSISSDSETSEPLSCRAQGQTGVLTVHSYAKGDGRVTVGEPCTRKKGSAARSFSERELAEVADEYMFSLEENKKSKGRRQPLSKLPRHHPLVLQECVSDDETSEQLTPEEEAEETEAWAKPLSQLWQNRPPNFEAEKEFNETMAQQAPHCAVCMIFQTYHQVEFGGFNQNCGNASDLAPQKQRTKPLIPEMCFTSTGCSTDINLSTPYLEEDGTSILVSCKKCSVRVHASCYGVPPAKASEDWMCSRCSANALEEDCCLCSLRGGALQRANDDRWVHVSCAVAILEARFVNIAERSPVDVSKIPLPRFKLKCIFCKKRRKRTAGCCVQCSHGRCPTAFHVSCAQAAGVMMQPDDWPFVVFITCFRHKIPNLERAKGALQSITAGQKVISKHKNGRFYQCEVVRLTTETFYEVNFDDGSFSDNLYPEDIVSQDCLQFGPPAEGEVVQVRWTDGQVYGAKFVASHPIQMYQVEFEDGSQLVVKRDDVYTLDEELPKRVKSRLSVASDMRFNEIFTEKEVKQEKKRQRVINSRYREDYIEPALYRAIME

| SMILES | Potency | activity change, negative = inhibition |
| --- | --- | --- |
| CC1CCc2c(sc3nc(C4CC4)nc(N4CCN(C(=O)c5ccco5)CC4)c23)C1 (centres undefined) | inconclusive: 56.2 µM [inhibitor, partial curve] | – |
| CC(C)OCCCNC(=O)c1cc(-c2cccs2)nc2ccccc12 | inactive | – |
| Cc1c(Br)ccc(NC(=O)Cn2nc(-c3cccs3)ccc2=O)c1C | inconclusive: 0.794 µM [inhibitor, full curve] | – |
| Clc1ccc(C2Nc3cccc4cccc(c34)N2)cc1 | inconclusive: 56.2 µM [inhibitor, partial curve] | – |
| COc1ccc(-c2c3c(=O)n(C)c(=O)n(C)c3c3c(-c4cccc(C)c4)nc4ccccc4n23)cc1 | inactive | – |
| COc1ccccc1NS(=O)(=O)c1cc(NC(=O)CCNC(C)=O)ccc1C | inconclusive: 25.1 µM [inhibitor, partial curve] | – |
| Cc1[nH]c2ccc(F)cc2c1CCN(Cc1cccnc1)C(=S)Nc1cccc(F)c1 | inconclusive: 50.1 µM [inhibitor, partial curve] | – |
| CSc1ncc(CN2CCN(C3CCCCC3)C(CCO)C2)cn1 (centres undefined) | inactive | – |
| CCCCn1c(-c2cccc(F)c2)nc2c1c(=O)[nH]c(=O)n2CC(C)C | inactive | – |
| CC(OC(=O)c1ccc(F)cc1)C(=O)Nc1nc(-c2cccc([N+](=O)[O-])c2)cs1 (centres undefined) | inconclusive: 15.8 µM [inhibitor, full curve] | – |
| C=CCn1c(CSc2nc3ccccc3s2)n[nH]c1=S | active: 50.1 µM | – |
| COc1cccc(NC(=O)CN(c2ccc3c(c2)OCO3)S(C)(=O)=O)c1 | inconclusive: 22.4 µM [inhibitor, full curve] | – |
| CCCCc1nc2cc(C(=O)N3CCCCC3CCNC(C)=O)ccc2o1 (centres undefined) | inconclusive: 31.6 µM [inhibitor, partial curve] | – |
| COc1cc(/C=N/Nc2ccc(F)cc2F)cc(OC)c1O | active: 79.4 µM | – |
| CC(=O)Nc1ccc(NC(=O)c2ccc(-n3c(C)ccc3C)cc2)cc1 | inactive | – |
| O=c1oc(-c2ccc([N+](=O)[O-])cc2)nc2ccc(O)cc12 | inconclusive: 56.2 µM [inhibitor, partial curve] | – |
| COC(=O)C1=C(C)Nc2nc(-c3ccccc3)nn2C1c1ccc(C)o1 (centres undefined) | inconclusive: 50.1 µM [inhibitor, partial curve] | – |
| N#CC(C#N)=C(N)/C(C#N)=C/c1cc(O)c(O)c(O)c1 | active: 17.8 µM | – |
| COCCNC(=S)Nc1ccc2[nH]c(=O)[nH]c2c1 | inactive | – |
| Cc1ccc(-c2nc3cnccn3c2Nc2c(C)cccc2C)o1 | inconclusive: 25.1 µM [inhibitor, single point] | – |
| O=C(C1=C[C@@H]2[C@H]3C(=O)N(c4cccc(Cl)c4)C(=O)[C@H]3[C@@H](C(=O)c3ccc(Cl)cc3)N2C=C1)c1ccccc1 | inconclusive: 44.7 µM [inhibitor, partial curve] | – |
| CCOC(=O)c1c(C)[nH]c(C(=O)COC(=O)COc2ccccc2C=O)c1C | active: 44.7 µM | – |
| Cc1cc(C(=O)COC(=O)c2ccccc2Br)c(C)n1CC1CCCO1 (centres undefined) | inconclusive: 50.1 µM [inhibitor, partial curve] | – |

| SMILES | Potency | activity change, negative = inhibition |
| --- | --- | --- |
| CCOc1cc(/C=N/Nc2cc(C)nc(-n3nc(C)cc3C)n2)ccc1O | inconclusive: 56.2 µM [inhibitor, partial curve] | – |
| CN(C)CCCN1C(=O)C(O)=C(C(=O)c2cc3ccccc3o2)C1c1ccccc1 (centres undefined) | – | inactive: -24% [at 11.4 µM] |
| Cc1csc(NC(=O)c2ccc3ccccc3n2)n1 | inconclusive: 56.2 µM [inhibitor, partial curve] | – |
| CCc1cccc(C)c1NC(=O)c1cc(S(=O)(=O)NCc2ccccc2Cl)ccc1F | inconclusive: 89.1 µM [inhibitor, single point] | – |
| c1cc2c(cc1C1CCCCC1)c1c3n2CCCNC3CCC1 (centres undefined) | active: 44.7 µM | – |
| Cc1ccc(NS(=O)(=O)c2ccc3[nH]c(=O)oc3c2)c(C)c1 | inconclusive: 17.8 µM [inhibitor, single point] | – |
| O=C(Nc1ccc(F)cc1)c1ccccc1Oc1ccc(C(F)(F)F)cc1[N+](=O)[O-] | inconclusive: 39.8 µM [inhibitor, single point] | – |
| COc1cc2nc(SCC(=O)Nc3c(C)cc(C)cc3C)n3nc(CCn4c(C)nc5ccccc54)nc3c2cc1OC | inactive | – |
| Cc1ccc(C(c2sc3nc(C)nn3c2O)N2CCN(c3ccccc3)CC2)cc1 (centres undefined) | inconclusive: 50.1 µM [inhibitor, partial curve] | – |
| COc1cccc(CN(C(=O)/C=C/c2ccco2)C2CCS(=O)(=O)C2)c1 (centres undefined) | inactive | – |
| COc1cc(/C=C2/C(=O)ON=C2C)ccc1OCc1ccccc1F | inconclusive: 89.1 µM [inhibitor, single point] | – |
| Cc1c[n+]([O-])n(-c2ccc(C(=O)O)cc2)n1 | inconclusive: 89.1 µM [inhibitor, single point] | – |
| CN(C)S(=O)(=O)c1cccc(C(=O)NCc2ccco2)c1 | inconclusive: 89.1 µM [inhibitor, single point] | – |
| CC(C)(C)OC(=O)NCc1ccc(CNC(=O)c2nc[nH]c2C(=O)N2CCN(C(=O)OC(C)(C)C)CC2)cc1 | inconclusive: 89.1 µM [inhibitor, partial curve] | – |
| COc1cc(C(=O)NNC(=O)CSc2nnc3ccccn23)cc(OC)c1OC | inactive | – |
| CCOc1ccc(/C=C2\SC(=S)N(CC(=O)NCCCN3CCOCC3)C2=O)cc1 | inconclusive: 39.8 µM [inhibitor, partial curve] | – |
| CCN(CC)c1ccc(NC(=O)CSC(=O)c2ccccc2)cc1 | inconclusive: 12.6 µM [inhibitor, full curve] | – |
| CCOC(=O)C1=C(N)OC2=C(C(=O)CC(C)(C)C2)C1c1ccco1 (centres undefined) | active: 56.2 µM | – |
| COc1ccc(C2c3c(ncn(CCN4CCOCC4)c3=N)Oc3ccc4ccccc4c32)cc1OC (centres undefined) | inconclusive: 31.6 µM [inhibitor, single point] | – |
| O=C(CSc1nnc(SCc2ccc(Cl)cc2)s1)N/N=C/c1ccc(C(=O)O)cc1 | inactive | – |
| CCN(Cc1ccncc1)C(=O)c1cc(COc2c(F)cccc2F)on1 | inconclusive: 25.1 µM [inhibitor, full curve, poor fit] | – |
| COC(=O)C1=C(N)Oc2cc(N(C)C)ccc2C1c1ccccc1OC (centres undefined) | active: 50.1 µM | – |
| N#Cc1ccsc1NC(=O)CN1CCN(c2ccc(O)cc2)CC1 | inconclusive: 89.1 µM [inhibitor, single point] | – |

| SMILES | Potency | activity change, negative = inhibition |
| --- | --- | --- |
| Cc1cc2cc(C(c3nnnn3Cc3ccco3)N3CCc4ccccc43)c(=O)[nH]c2cc1C (centres undefined) | inconclusive: 56.2 µM [inhibitor, partial curve] | – |
| CN1CCN(CCC(=O)N/N=C/c2cc3c(cc2[N+](=O)[O-])OCO3)CC1 | active: 3.98 µM | – |
| COC(=O)c1cc2c(ccn2-c2ccc(F)cc2)n1Cc1ccc(OC)cc1 | inconclusive: 22.4 µM [inhibitor, full curve] | – |
| Cc1cc(OCC(=O)NCCO)cc(C)c1Cl | active: 89.1 µM | – |
| Cc1ccc(-c2cnc(SCCNC(=O)c3ccco3)[nH]2)cc1 | inactive | – |
| COC(=O)c1ccc(C(=O)N2CCCC(Nc3ccc(C(C)C)cc3)C2)cc1 (centres undefined) | inconclusive: 89.1 µM [inhibitor, single point] | – |
| COc1cc(/C=N/n2c(-c3n[nH]c4c3CCC4)n[nH]c2=S)ccc1O | active: 3.16 µM | – |
| COc1cc2c(cc1OC)C(c1ccccc1[N+](=O)[O-])N(C(C)=O)CC2 (centres undefined) | inactive | – |
| Oc1[nH]c2ccccc2c1N=NC(=S)NCCc1ccccc1 | inconclusive: 11.2 µM [inhibitor, full curve] | – |
| COc1ccc(CN(Cc2ccccc2)C(=O)c2ccc(O)cc2)cc1COc1ccc(NC(C)=O)cc1 | inconclusive: 31.6 µM [inhibitor, single point] | – |
| Cc1cc(=O)n2cccc(O)c2n1 | inconclusive: 0.708 µM [inhibitor, full curve] | – |
| C=C(C)COc1ccc(-c2[nH]ncc2-c2ccc(OC)cc2)c(O)c1 | inconclusive: 35.5 µM [inhibitor, full curve, poor fit] | – |
| COc1ccc(NC(=O)c2c(-c3ccc(C)cc3)nnc3ccccc23)cc1Cl | inactive | – |
| COc1ccc(CN(C)c2ccc(S(=O)(=O)N3CCN(C)CC3)cc2[N+](=O)[O-])cc1OC | inconclusive: 50.1 µM [inhibitor, partial curve] | – |
| N#C/C(C(=O)Nc1ccc(Cl)cc1)=C(/S)Nc1ccccc1 | active: 20 µM | – |
| Cc1ccc(N2NC(C)(c3cccs3)NC2=S)cc1 (centres undefined) | inconclusive: 56.2 µM [inhibitor, partial curve] | – |
| Cc1noc(NS(=O)(=O)c2ccc(NC(=O)CSc3nc4ccccc4s3)cc2)c1C | inconclusive: 63.1 µM [inhibitor, partial curve] | – |
| COc1ccc(C(=S)N2CCCCC2)cc1Br | inconclusive: 56.2 µM [inhibitor, partial curve] | – |
| CSc1nnc(NC(=O)c2nc(S(=O)(=O)Cc3ccccc3F)ncc2Cl)s1 | active: 22.4 µM | – |
| O=C(Nn1cc(C(=O)N2CCN(c3ccccc3F)CC2)c2ccccc2c1=O)c1cnccn1 | active: 25.1 µM | – |
| Cc1ccc(-n2cc(-c3ccccc3)nc2S(=O)(=O)CC(=O)Nc2ccc(F)cc2)cc1 | inconclusive: 17.8 µM [inhibitor, full curve] | – |
| COc1ccc(N2CCN(C(c3ccccc3)c3nnnn3Cc3ccccc3)CC2)cc1 (centres undefined) | inconclusive: 14.1 µM [inhibitor, full curve] | – |
| O=C(O)CCCN1C(=O)/C(=C\C(Cl)=C\c2ccccc2)SC1=S | active: 50.1 µM | – |

From PubChem BioAssay AID504339 (National Center for Advancing Translational Sciences (NCATS), 2011)
